Data on 44 sequences can be found in the supplement of paper PMC11417369.

Some of the results follow.

The test concerns PfHDP1 homeodomain (GST-tagged). The test is described as follows: gcPBM binding intensity (ln(normalized median fluorescence intensity)); higher = stronger DNA binding. An outline of the steps:
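Binding of GST-tagged P. falciparum DNA-binding domains, expressed in E. coli and used at about 25 μg on average, was carried out for 1 h in 1× PBS containing 1% milk, 0.2 mg/ml BSA, 0.5% salmon testes DNA and 0.03% Triton X-100. The target was an Agilent 4 × 180k array of primer-extended double-stranded 36-bp intergenic genomic probes plus negative controls, read with Alexa488 anti-GST antibody at 488 nm. Binding intensity is the highest Masliner-normalised natural-log median intensity across replicate spots of either probe orientation.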
With “TCCTCTTATAATTCGTGTCCACATATATCATACAAT [XGTACX_site1523]”, the “gcPBM binding intensity (ln)” value was 7.13. Turning to “AAAAAATACATACATACACACATATATATATATATA [CACACA_site913]”, the “gcPBM binding intensity (ln)” value is 9.37. “TACGGATATATATATTGTACATATATATAATATATA [XGTACX_site3156]”: the “gcPBM binding intensity (ln)” value is 6.67. The value for “TATATATATATTAATAGTACATATTATGTAAGCCTA [XGTACX_site2826]” was 8.21; that for “TTTTTTTTTTTTTTTGTGCACAATATAATTTTTAAT [GTGCAC_site9747]” was 10.8. Regarding “CATCATATAAATTCAAGTACAAGAAAAAGTAATATA [XGTACX_site2383]”, the “gcPBM binding intensity (ln)” value was found to be 6.59. “TAAATAAAGATATATACACACATATTTATATTTATA [CACACA_site6431]”: the “gcPBM binding intensity (ln)” value came to 6.31.

As to “AAATAATTTTTATTTGTACACACATACATATATATT [CACACA_site8240]”, the “gcPBM binding intensity (ln)” value came out at 6.56. “ATATCTACTTTTTTATGTACGAAAAAAATACGGATT [XGTACX_site8937]”: the “gcPBM binding intensity (ln)” value came to 6.41.

“ACAAAATTGAAATTCACACAAAAACTATACTTTTTA [CACACA_site4638]”: the “gcPBM binding intensity (ln)” value stood at 6.03. Take “TATGATATAATATACACACATACATATATATATATA [CACACA_site510]”: the “gcPBM binding intensity (ln)” value is 9.06.

With “TTATTCATAAAAACAAAAAACAAAAATGAAATAGGA [CACACA_negctrl_site1123]”, the “gcPBM binding intensity (ln)” value stood at 6.83. With “TTAATATTTTATTTCACACACATAAATGCCCCAAAC [CACACA_site1887]”, the “gcPBM binding intensity (ln)” value worked out at 7.49. As for “AGAGTTCTCCTATGCACACAAAAAACTTTCATTTAT [CACACA_site4193]”, the “gcPBM binding intensity (ln)” value was found to be 9.41. Regarding “TATTATGTCTAAAATAACATATTAATATATTATTTC [CACACA_negctrl_site285]”, the “gcPBM binding intensity (ln)” value is 6.2. In the case of “AATAAAAAAAAAAAAAAAAAAAAAAACCTGAGGAGT [CACACA_negctrl_site1140]”, the “gcPBM binding intensity (ln)” value is 5.96.

In the case of “AACCTTTTAAGAGTTGCACACGTACAAAAAAAAAAA [CACACA_site9159]”, the “gcPBM binding intensity (ln)” value stood at 8.18.

As to “TTTAAGCAAAGACACACACACATATTTATATTTATA [CACACA_site6295]”, the “gcPBM binding intensity (ln)” value is 6.58. For the sequence “AAACATTTATACAAAGCACACAATTTTTAACTTTTA [CACACA_site2627]”, the “gcPBM binding intensity (ln)” value worked out at 6.3.

With “TTTCAGACAAAAAAAAAAAAAAAAAAGAGGAGAATA [CACACA_negctrl_site254]”, the “gcPBM binding intensity (ln)” value amounted to 5.94.

With “TATATTAAACAATATACACACATTAATGTAGACATA [CACACA_site8889]”, the “gcPBM binding intensity (ln)” value stood at 6.72.

With “TTATAATATATATCTGCATGTTGCTTTGGGGCTTTA [TGCATGCA_site712]”, the “gcPBM binding intensity (ln)” value stood at 7.07. For “GAAAATTCTTAAGGCACACACATATAAGATATATAC [CACACA_site6410]”, the “gcPBM binding intensity (ln)” value worked out at 6.49. On to “ATAAAATATAAAAACGCACACAATTATAAGGGTGTA [CACACA_site177]”, for which the “gcPBM binding intensity (ln)” value amounted to 6.96. For “ATATATATATATAAAGTGCAAAAATGAAAGTAAGAC [GTGCAC_site9850]”, the “gcPBM binding intensity (ln)” value was found to be 9.27. For the sequence “GTATATGAATGTTCATGTACATAATAAAATATATAA [XGTACX_site250]”, the “gcPBM binding intensity (ln)” value is 6.57. “AAATTAAAATATAATACACACATAAAAAAAAAATCA [CACACA_site5918]”: the “gcPBM binding intensity (ln)” value is 6.62. For the sequence “AAAACAAACACATTTACACACATAAATAAATCAATT [CACACA_site4122]”, the “gcPBM binding intensity (ln)” value amounted to 6.67. Consider “TTTATTTTTCCATATGCACACACACCGTATATATAA [CACACA_site8293]”, for which the “gcPBM binding intensity (ln)” value came out at 9.97.

In the case of “ATACATACATACATACGTACATATGTATATATATAT [XGTACX_site8498]”, the “gcPBM binding intensity (ln)” value stood at 8.86. For “TATTCATTCTATAAAACACACAAATATTTTTGTATC [CACACA_site666]”, the “gcPBM binding intensity (ln)” value came to 6.86. Consider “ATGTTCTATAAATATGAACACACGACATATTATTTA [CACACA_site1799]”, for which the “gcPBM binding intensity (ln)” value came out at 6.33. Take “ATATATATATATATATGTACATATTATTCTCATTGT [XGTACX_site6259]”: the “gcPBM binding intensity (ln)” value is 9.4. “TATATTTAATTACATGAACACACATTATATATTTTT [CACACA_site8969]”: the “gcPBM binding intensity (ln)” value came to 6.39. As to “TGTAGTATCAATTTTTGTACATAACACATATGTATA [XGTACX_site613]”, the “gcPBM binding intensity (ln)” value was determined as 6.3.

For the sequence “CATATGATATTATTTTGTACTTATTACAAATATGAA [XGTACX_site7929]”, the “gcPBM binding intensity (ln)” value was 6.33. With “GAGCATTACACATATACACACATATATATAAACATA [CACACA_site5515]” the figure was 7.64.

“TATAATAATATTTATTGTACGATTAGATTAATTCAT [XGTACX_site612]”: the “gcPBM binding intensity (ln)” value is 5.99.

Take “ATATATATATATATTTGTACATAATATATATATGCA [XGTACX_site1795]”: the “gcPBM binding intensity (ln)” value worked out at 9.16. Regarding “AAAAAAAAATAGAAATGTACAAATTGTAATAATTCC [XGTACX_site6182]”, the “gcPBM binding intensity (ln)” value came out at 6.35. As to “CAATTAAACAATTAAACATGCAAAATGATATAATAA [TGCATGCA_site240]”, the “gcPBM binding intensity (ln)” value amounted to 6.33.

“AAACAATTTAGACATACACACAAAAATAATATTATA [CACACA_site384]”: the “gcPBM binding intensity (ln)” value stood at 6.78. With “ATTAAAAAAAAGCTCATCGAAATGTCTTATATAAAT [CACACA_negctrl_site912]” the figure was 6.59; with “ATATATATATATATATGTACATATTGTATTATTCAC [XGTACX_site6511]”, 9.47.
